Out of some 310,000 compounds screened, about 11,000 (3.5%) were called active. This list was built around the results that the source calls inconclusive (neither active nor inactive); the mix of calls is not that of the screen. Calls follow the shape of the dose curve; as a rule, active = well fitted inhibition curve with a large enough effect; inconclusive = small, poorly fitted or top-dose-only effect, or effect the other way; inactive = flat fitted curve, though single readings scatter. No potency is given beside an inconclusive call; the fits are too rough.
Assay: VP16 counterscreen qHTS for inhibitors of ROR gamma transcriptional activity;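 also: Gal4-VP16 expression switched on by copper sulfate through the metallothionein promoter; nearly all actives have a fitted effect of over 50% in size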
Conditions: Drosophila S2 Gal4-VP16 UAS-luciferase, luminescence, 20 h; activity, negative = inhibition: at 53.6 µM (top of the series)
% is scaled to controls: 0 for no effect and ±100 for the full control effect; potency is read from the fitted curve at half-maximal effect; tags tell the direction and shape of the fitted curve.

SMILES	activity, negative = inhibition	Potency
COc1ccc(-c2noc(CSc3nc4ccccc4c(=O)n3-c3ccccc3)n2)cc1	inactive: 0.2%	
O=C(NCc1cccs1)c1ccc(N2CCCCC2)nc1	inactive: 9.96%	
Oc1ccc2ccccc2c1N=Nc1nccs1		active: 3.55 µM
CCC(CC)c1nnc(NC(=O)/C=C/c2ccco2)s1		inconclusive [inhibitor, partial curve, poor fit]
Cc1ccc(S(=O)(=O)N2CCN(C(=O)CSc3cc(C)ccc3C)CC2)c(C)c1		inconclusive [inhibitor, single point]
CN(C)/N=C/C=C1\CCC/C(=C\c2ccc(F)c(F)c2)C1=O		inconclusive [inhibitor, single point]
Cc1nc(-c2ccc(NC(=O)c3ccccc3Br)cc2)cs1		inconclusive [inhibitor, single point]
CCOc1ccc(N=Nc2c(N)[nH][nH]c2=O)cc1	inactive: -29%	
CN1C/C(=C/c2ccsc2)C(=O)/C(=C/c2ccsc2)C1		inconclusive [inhibitor, single point]
COC(=O)C(NC(=O)COc1ccccc1)(Nc1nc2c(s1)CCCC2)C(F)(F)F (stereo not given)		active: 20 µM
O=S(=O)(c1ccccc1)N(CC1CO1)c1ccccc1 (stereo not given)	inactive: -9.62%	
CC(C)c1nc(SCC(=O)Nc2cccc(C(F)(F)F)c2)c2c(=O)n(C)c(=O)n(C)c2n1		inconclusive [inhibitor, partial curve, poor fit]
O=C1CC(NNc2nc3ccccc3s2)C(=O)N1c1ccccc1 (stereo not given)		inconclusive [inhibitor, single point]
Cc1ccc(OCC(=O)c2cc(C)n(C3CC3)c2C)c([N+](=O)[O-])n1		inconclusive [activator, single point]
C#CCn1cc(/C=N/Nc2nc3ccccc3[nH]2)c2ccccc21		inconclusive [inhibitor, single point]
Cc1noc(C)c1C(=O)OCC(=O)Nc1cc(Cl)ccc1Oc1ccccc1		inconclusive [inhibitor, single point]
Cc1ccc(-c2noc(CSc3nc(N)cc(N)n3)n2)cc1		inconclusive [inhibitor, single point]
CC1(C)CC(=O)C(C2C3=C(CC(C)(C)CC3=O)Oc3c(Br)cc(Br)cc32)=C(O)C1 (stereo not given)		inconclusive [inhibitor, single point]
CN1/C(=C\C=C2/SC(=S)NC2=O)C(C)(C)c2ccccc21		inconclusive [inhibitor, single point]
CCCC[C@@H](C)/C=C(C)/C=C(\C)C(=O)NC1=C[C@@](O)(/C=C/C=C/C=C/C(=O)NC2=C(O)CCC2=O)[C@@H]2O[C@@H]2C1=O		active: 1.26 µM
COCc1nc2oc3ccccc3c(=O)c2cc1C(=O)OC	inactive: -4.73%	
CCCn1c(CNS(=O)(=O)c2ccc(C)cc2)nc2ccccc21		inconclusive [inhibitor, single point]
Cc1ccc(N2NC(=O)/C(=C\c3cc4c(cc3[N+](=O)[O-])OCO4)C2=O)cc1C		inconclusive [inhibitor, single point]

SMILES	activity, negative = inhibition	Potency
Cc1cccc(S(=O)(=O)Nc2nc3ccccc3nc2Nc2ccc3c(c2)OCO3)c1		inconclusive [inhibitor, single point]
Cc1ccc2nc(-c3ccc(N4C(=O)CC(N5CCCC(C)C5)C4=O)cc3)sc2c1 (stereo not given)	inactive: 6.63%	
COc1cccc(S(=O)(=O)Nc2ccc(C(=O)N3CCN(C(=O)c4ccco4)CC3)cc2)c1		inconclusive [inhibitor, single point]
Cn1nnc2cc(C(=O)Nc3ccccc3)ccc21		inconclusive [activator, single point]
CC(C)Cn1c(O)c(/C=C2\C=NN=C2c2ccccc2)sc1=S		inconclusive [inhibitor, single point]
CCOC(=O)C1CCCN(c2nc(C)nc3c2oc2ccccc23)C1 (stereo not given)		inconclusive [inhibitor, single point]
CCN(CC)C(=O)CC(c1ccc(OC)cc1)c1c(OC)cc(OC)c2c(-c3ccccc3)cc(=O)oc12 (stereo not given)	inactive: -7.77%	
CN(/N=C/c1c[nH]c2ccccc12)c1cnn(-c2ccc(F)c(Cl)c2)c(=O)c1Cl	inactive: 1.29%	
COc1cccc(C(=O)N2CCN(Cc3ccccc3Br)CC2)c1	inactive: -1.9%	
COc1ccc(Cc2nc3ccc(C(=O)N4C[C@@H](C)O[C@@H](C)C4)cc3o2)cc1OC		inconclusive [inhibitor, single point]
COc1ccccc1CCNC(=O)CCSc1nc(-c2ccco2)cc(C(F)(F)F)n1		inconclusive [inhibitor, single point]
C/C(Cc1ccccc1)=N\NC(=O)c1ccc(F)cc1		inconclusive [inhibitor, partial curve]
COc1ccccc1C(=O)NN1C(=O)/C(=C/c2cccn2C)SC1=S	inactive: -7.1%	
CC1CCCCN1C(=S)NCCc1ccccc1 (stereo not given)		inconclusive [inhibitor, single point]
Cc1cc(C)nc(SCC(=O)N/N=C\C(Br)=C\c2ccccc2)n1		inconclusive [inhibitor, single point]
O=c1[nH]c(C2CCCN(S(=O)(=O)c3cccc(F)c3)C2)nc2c1nnn2Cc1ccccc1 (stereo not given)	inactive: -11.3%	
Cc1nc2sc(C(c3ccco3)N3CCN(c4ccccc4F)CC3)c(O)n2n1 (stereo not given)	inactive: -3.27%	
Fc1ccc(NC(=S)Nc2cc(-c3ccccc3)[nH]n2)cc1Cl		active: 1.58 µM
O=C(CCCOc1ccccc1)NC(=S)Nc1ccccc1		inconclusive [inhibitor, single point]
Cc1ccnc(NC(=O)c2cccc(NS(=O)(=O)c3ccccc3C)c2)c1	inactive: 2.65%	
c1cnc(SCCCOc2ccc3ccccc3c2)nc1		inconclusive [inhibitor, full curve]
COCCNC(=O)/C(C#N)=C/c1cc(C)n(-c2ccc(C)cc2)c1C		inconclusive [activator, single point]

Source: PubChem BioAssay AID2546 (National Center for Advancing Translational Sciences (NCATS), 2010)
